Measured values reported in patent US20260137703A1, “2-AMINO-PYRIDO[2,3-D]PYRIMIDIN-7(8H)-ONE AND 7-AMINO-1-PYRIMIDO[4,5-D]PYRIMIDIN-2(1 H)-ONE DERIVATIVES AS EGFR INHIBITORS FOR THE TREATMENT OF CANCER” (Cancer Research Technology Limited, priority 2022, published 2026).

Molecular target: CtermHisTag-mEGFR Triple Mutant (R797S, L858R, T790M) (Homo sapiens, UniProt P00533, C797S/L858R/T790M)
Experiment: TR-FRET probe displacement, EGFR triple mutant
Conditions: 1.25 nM EGFR, 100 nM probe, 30 mins room temperature

Structure (SMILES) | IC50
C#Cc1c(C(=O)N(C)C)c(=O)n(-c2ccccc2)c2nc(Nc3ccccc3OC)ncc12 [Example 146, 5-ethynyl-2-[(2-methoxyphenyl)amino]-N,N-dimethyl-7-oxo-8-phenylpyrido[2,3-d]pyrimidine-6-carboxamide] | 1000 to 50000 nM
C#Cc1cc(=O)n(C)c2nc(Nc3cccc(N(C)CCN(C)C)c3)ncc12 [Example 52, 2-[(3-{[2-(Dimethylamino)ethyl](methyl)amino}phenyl)amino]-5-ethynyl-8-methylpyrido[2,3-d]pyrimidin-7-one] | 20 to 100 nM
C#Cc1c(Nc2ccccc2)c(=O)n(C)c2nc(Nc3ccc(N(C)CCN(C)C)cc3)ncc12 [Example 144, 2-[(4-{[2-(dimethylamino)ethyl](methyl)amino}phenyl)amino]-5-ethynyl-8-methyl-6-(phenylamino)pyrido[2,3-d]pyrimidin-7-one] | 20 to 100 nM
C#Cc1c(-c2cccc(F)c2Cl)c(=O)n(C)c2nc(Nc3ccc(N(C)CCN(C)C)cc3)ncc12 [Example 135, 6-(2-chloro-3-fluorophenyl)-2-[(4-{[2-(dimethylamino)ethyl](methyl)amino}phenyl)amino]-5-ethynyl-8-methylpyrido[2,3-d]pyrimidin-7-one] | < 20 nM
C#Cc1cc(=O)n(C2CC(=O)N(C)C2)c2nc(Nc3ccc(N4CCN(C)CC4)cc3)ncc12 (stereo not drawn) [Example 117, 4-(5-ethynyl-2-{[4-(4-methylpiperazin-1-yl)phenyl]amino}-7-oxopyrido[2,3-d]pyrimidin-8-yl)-1-methylpyrrolidin-2-one] | 100 to 1000 nM
C#Cc1c(-c2ccccc2Cl)c(=O)n(C)c2nc(Nc3cccc(OC)c3)ncc12 [Example 131, 6-(2-chlorophenyl)-5-ethynyl-2-[(3-methoxyphenyl)amino]-8-methylpyrido[2,3-]pyrimidin-7-one] | 20 to 100 nM
C#Cc1cc(=O)n([C@H]2CC[C@@H](NC(=O)CCC(=O)N(C)C)CC2)c2nc(Nc3ccc(N4CCN(C)CC4)cc3)ncc12 [Example 93, N,N-Dimethyl-N′-[(1s,4s)-4-(5-ethynyl-2-{[4-(4-methylpiperazin-1-yl)phenyl]amino}-7-oxopyrido[2,3-d]pyrimidin-8-yl)cyclohexyl]succinamide] | < 20 nM
C=Cc1c(-c2ccccc2)c(=O)n(C)c2nc(Nc3ccccc3OC)ncc12 [Example 162, 5-ethenyl-2-[(2-methoxyphenyl)amino]-8-methyl-6-phenylpyrido[2,3-d]pyrimidin-7-one] | 1000 to 50000 nM
C#Cc1c(-c2c(Cl)cccc2Cl)c(=O)n(C)c2nc(Nc3ccc(N(C)CCN(C)C)cc3)ncc12 [Example 134, 6-(2,6-dichlorophenyl)-2-[(4-{[2-(dimethylamino)ethyl](methyl)amino}phenyl)amino]-5-ethynyl-8-methylpyrido[2,3-d]pyrimidin-7-one] | 100 to 1000 nM
C#Cc1cc(=O)n(-c2ccc(OC)cc2OC)c2nc(Nc3ccccc3OC)ncc12 [Example 75, 8-(2,4-Dimethoxyphenyl)-5-ethynyl-2-[(2-methoxyphenyl)amino]pyrido[2,3-d]pyrimidin-7-one] | < 20 nM
C#Cc1cc(=O)n(-c2ccccc2)c2nc(Nc3ccc(N4CCOCC4)cc3)ncc12 [Example 6, 5-Ethynyl-2-((4-morpholinophenyl)amino)-8-phenylpyrido[2,3-d]pyrimidin-7(8H)-one] | < 20 nM
C#Cc1cc(=O)n(-c2ccccc2)c2nc(Nc3ccc(N4CCN(C(C)C)CC4)cc3)ncc12 [Example 16, 5-Ethynyl-2-{[4-(4-isopropylpiperazin-1-yl)phenyl]amino}-8-phenylpyrido[2,3-d]pyrimidin-7-one] | < 20 nM
C#Cc1cc(=O)[nH]c2nc(Nc3ccccc3OC)ncc12 [Example 120, 5-ethynyl-2-((2-methoxyphenyl)amino)pyrido[2,3-d]pyrimidin-7(8H)-one] | 100 to 1000 nM
C#Cc1c(C)c(=O)n(Cc2cccnc2)c2nc(Nc3ccc(N4CCN(C)CC4)cc3)ncc12 [Example 115, 5-ethynyl-6-methyl-2-{[4-(4-methylpiperazin-1-yl)phenyl]amino}-8-(pyridin-3-ylmethyl)pyrido[2,3-d]pyrimidin-7-one] | 20 to 100 nM
C#Cc1c(C)c(=O)n([C@H]2CC[C@H](NC(C)=O)CC2)c2nc(Nc3ccc(N4CCN(C)CC4)cc3)ncc12 [Example 102, N-[(1r,4r)-4-(5-Ethynyl-6-methyl-2-{[4-(4-methylpiperazin-1-yl)phenyl]amino}-7-oxopyrido[2,3-d]pyrimidin-8-yl)cyclohexyl]acetamide] | 100 to 1000 nM
C#Cc1cc(=O)n(C2CCOC2)c2nc(Nc3ccc(N4CCN(C)CC4)cc3)ncc12 (stereo not drawn) [Example 105, 5-ethynyl-2-{[4-(4-methylpiperazin-1-yl)phenyl]amino}-8-(oxolan-3-yl)pyrido[2,3-d]pyrimidin-7-one] | 100 to 1000 nM
C#Cc1cc(=O)n([C@H]2CC[C@@H](NC(=O)CC(=O)O)CC2)c2nc(Nc3ccc(N4CCN(C)CC4)cc3)ncc12 [Example 99, 2-{[(1s,4s)-4-(5-Ethynyl-2-{[4-(4-methylpiperazin-1-yl)phenyl]amino}-7-oxopyrido[2,3-d]pyrimidin-8-yl)cyclohexyl]carbamoyl}acetic acid] | < 20 nM
C#Cc1cc(=O)n([C@H]2CC[C@@H](N(C)C(=O)CN(C)C)CC2)c2nc(Nc3ccccc3OC)ncc12 [Example 101, 2-(Dimethylamino)-N-methyl-N-[(1s,4s)-4-{5-ethynyl-2-[(2-methoxyphenyl)amino]-7-oxopyrido[2,3-d]pyrimidin-8-yl}cyclohexyl]acetamide] | 1000 to 50000 nM
C#Cc1cc(=O)n(-c2ccccc2)c2nc(Nc3ccc(N4CCNC(C)C4)cc3)ncc12 (stereo not drawn) [Example 27, 5-Ethynyl-2-{[4-(3-methylpiperazin-1-yl)phenyl]amino}-8-phenylpyrido[2,3-d]pyrimidin-7-one] | < 20 nM

Now from value to molecule:

IC50 | Structure (SMILES)
< 20 nM | C#Cc1cc(=O)n2c3nc(ncc13)Nc1ccc(N3CCN(C)CC3)c(c1)OCCC[C@H]2C [Example 239, (R)-1^5-ethynyl-8-methyl-3^4-(4-methylpiperazin-1-yl)-1^7,1^8-dihydro-4-oxa-2-aza-1(2,8)-pyrido[2,3-d]pyrimidina-3(1,3)-benzenacyclooctaphan-1^7-one]
20 to 100 nM | C#Cc1cc(=O)n2c3nc(ncc13)Nc1ccc(N3CCN(C)CC3)c(c1)N(C)C(=O)CCC2 [Example 225, 1^5-Ethynyl-4-methyl-3^4-(4-methylpiperazin-1-yl)-1^7,1^8-dihydro-2,4-diaza-1(2,8)-pyrido[2,3-d]pyrimidina-3(1,3)-benzenacyclooctaphane-1^7,5-dione]
20 to 100 nM | C#Cc1cc(=O)n(C)c2nc(Nc3ccc(N4CCN(C)CC4)c(OCCC4CCCC4)c3)ncc12 [Example 209, 2-((3-(2-Cyclopentylethoxy)-4-(4-methylpiperazin-1-yl)phenyl)amino)-5-ethynyl-8-methylpyrido[2,3-d]pyrimidin-7(8H)-one]
100 to 1000 nM | C=Cc1c(-c2ccccc2Cl)c(=O)n(C)c2nc(Nc3ccc(OCCN(C)C)cc3)ncc12 [Example 172, 6-(2-chlorophenyl)-2-({4-[2-(dimethylamino)ethoxy]phenyl}amino)-5-ethenyl-8-methylpyrido[2,3-d]pyrimidin-7-one]
100 to 1000 nM | C#Cc1cc(=O)n(C2CCCC2)c2nc(Nc3cccc(N(C)[C@H]4CC[C@@H](CS(C)(=O)=O)CC4)c3)ncc12 [Example 204]
1000 to 50000 nM | C#Cc1cc(=O)n2c3nc(ncc13)Nc1cccc(c1)OCCC2 [Example 186, 1^5-ethynyl-1^7,1^8-dihydro-4-oxa-2-aza-1(2,8)-pyrido[2,3-d]pyrimidina-3(1,3)-benzenacycloheptaphan-1^7-one]
< 20 nM | C#Cc1cc(=O)n(C)c2nc(Nc3ccc(N4CCN(C)CC4)c(OCCC)c3)ncc12 [Example 207, 5-Ethynyl-8-methyl-2-((4-(4-methylpiperazin-1-yl)-3-propoxyphenyl)amino)pyrido[2,3-d]pyrimidin-7(8H)-one]
1000 to 50000 nM | C=Cc1c(-c2ccccc2Cl)c(=O)n(C)c2nc(N)ncc12 [Example 173, 2-amino-6-(2-chlorophenyl)-5-ethenyl-8-methylpyrido[2,3-d]pyrimidin-7-one]
< 20 nM | C#Cc1cc(=O)n2c3nc(ncc13)Nc1ccc(N3CCN(C)CC3)c(c1)OCCCCCC2 [Example 230, 1^5-ethynyl-3^4-(4-methylpiperazin-1-yl)-1^7,1^8-dihydro-4-oxa-2-aza-1(2,8)-pyrido[2,3-d]pyrimidina-3(1,3)-benzenacyclodecaphan-1^7-one]
20 to 100 nM | C#Cc1cc(=O)n(C)c2nc(Nc3ccc(N4CCN(C)CC4)c(OCCc4ccccc4)c3)ncc12 [Example 214, 5-Ethynyl-8-methyl-2-((4-(4-methylpiperazin-1-yl)-3-phenethoxyphenyl)amino)pyrido[2,3-d]pyrimidin-7(8H)-one]
20 to 100 nM | C#Cc1cc(=O)n2c3nc(ncc13)Nc1ccc(N3CCN(C)CC3)c(c1)OCCCCC2C (stereo not drawn) [Example 228, 1^5-Ethynyl-9-methyl-3^4-(4-methylpiperazin-1-yl)-1^7,1^8-dihydro-4-oxa-2-aza-1(2,8)-pyrido[2,3-d]pyrimidina-3(1,3)-benzenacyclononaphan-17-one]
20 to 100 nM | C#Cc1cc(=O)n(Cc2ccn(C)n2)c2nc(Nc3ccc(N4CCN(C)CC4)c(OCCC4CCCC4)c3)ncc12 [Example 210, 2-((3-(2-Cyclopentylethoxy)-4-(4-methylpiperazin-1-yl)phenyl)amino)-5-ethynyl-8-((1-methyl-1H-pyrazol-3-yl)methyl)pyrido[2,3-d]pyrimidin-7(8H)-one]
100 to 1000 nM | C#Cc1cc(=O)n2c3nc(ncc13)Nc1ccc(N3CCN(C)CC3)c(c1)CN(C)CCC2 [Example 226, 1^5-Ethynyl-5-methyl-3^4-(4-methylpiperazin-1-yl)-1^7,1^8-dihydro-2,5-diaza-1(2,8)-pyrido[2,3-d]pyrimidina-3(1,3)-benzenacyclooctaphan-1^7-one]
100 to 1000 nM | C#Cc1c(C)c(=O)n(Cc2cnoc2)c2nc(Nc3ccc(N4CCN(C)CC4)cc3)ncc12 [Example 175, 5-Ethynyl-6-methyl-2-{[4-(4-methylpiperazin-1-yl)phenyl]aminol}-8-(1,2-oxazol-4-ylmethyl)pyrido[2,3-d]pyrimidin-7-one]
